Out of some 390,000 compounds screened, about 17,000 (4.4%) were called active. Inconclusive means that the source gave no clear call. Such entries were picked first, then a sample of the others. Calls come from the whole dose curve; as a rule, active = well fitted inhibition curve with a large enough effect; inconclusive = small, poorly fitted or top-dose-only effect; inactive = no such curve, though single readings can be large or run the other way. A potency beside an inconclusive call is a rough fit, not a confirmed value.
Target: Lysine-specific demethylase 4A (Homo sapiens) (UniProt O75164)
Sequence of UniProt O75164 (O75164 whole entry, looked up, the tested form may be a part): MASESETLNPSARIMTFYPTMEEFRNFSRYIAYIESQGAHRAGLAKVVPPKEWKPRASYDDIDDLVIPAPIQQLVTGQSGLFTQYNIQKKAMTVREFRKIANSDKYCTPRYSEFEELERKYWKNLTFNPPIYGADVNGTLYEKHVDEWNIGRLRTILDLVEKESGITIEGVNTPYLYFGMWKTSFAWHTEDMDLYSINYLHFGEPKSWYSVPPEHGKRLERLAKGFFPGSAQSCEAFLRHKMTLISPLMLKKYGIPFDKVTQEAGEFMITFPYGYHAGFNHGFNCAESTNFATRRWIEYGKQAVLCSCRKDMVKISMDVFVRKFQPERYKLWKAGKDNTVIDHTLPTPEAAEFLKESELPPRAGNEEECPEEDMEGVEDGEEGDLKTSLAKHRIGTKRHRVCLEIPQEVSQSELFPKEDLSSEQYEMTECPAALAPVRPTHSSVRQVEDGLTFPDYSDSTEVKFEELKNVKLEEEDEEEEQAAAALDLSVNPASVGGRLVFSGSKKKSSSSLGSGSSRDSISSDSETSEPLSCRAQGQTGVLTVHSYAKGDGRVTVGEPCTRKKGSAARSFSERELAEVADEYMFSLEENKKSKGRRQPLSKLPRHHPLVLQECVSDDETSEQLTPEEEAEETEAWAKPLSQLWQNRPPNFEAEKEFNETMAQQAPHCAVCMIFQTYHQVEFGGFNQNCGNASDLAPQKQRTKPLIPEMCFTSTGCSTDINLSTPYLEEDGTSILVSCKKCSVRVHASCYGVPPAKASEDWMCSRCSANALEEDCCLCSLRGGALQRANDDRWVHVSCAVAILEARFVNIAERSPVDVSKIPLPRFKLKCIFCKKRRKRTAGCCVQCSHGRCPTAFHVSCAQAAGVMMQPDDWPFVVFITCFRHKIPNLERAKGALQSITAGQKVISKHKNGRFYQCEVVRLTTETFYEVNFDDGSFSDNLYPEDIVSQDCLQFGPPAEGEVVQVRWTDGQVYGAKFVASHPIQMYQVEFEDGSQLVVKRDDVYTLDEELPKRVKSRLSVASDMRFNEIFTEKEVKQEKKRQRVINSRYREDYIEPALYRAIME
Assay: qHTS Assay for Inhibitors of JMJD2A-Tudor Domain; note: nearly all actives have a fitted effect of over 50% in size
Conditions: AlphaScreen JMJD2A-Tudor / H3K4me3 peptide binding; activity change, negative = inhibition: at 114 µM (top of the series)
% is set by controls: 0 for no effect and ±100 for the full control effect; potency is the fitted concentration of half-maximal effect; tags give direction and shape of the fitted curve.

Compound	activity change, negative = inhibition	Potency
Cc1ccc(C)c(CSc2nnc3[nH]c(=O)cc(-c4ccccc4)n23)c1	inactive: -15.9%	
Cc1nc2ccccc2nc1OCC(=O)NCc1ccc2c(c1)OCO2		inconclusive: 3.16 µM [inhibitor, single point]
CCc1[nH]c(=S)c(C#N)c2c1CCCC2		active: 14.1 µM
Cc1ccc(-n2c(O)c(C=NCc3ccccn3)c3ccccc3c2=O)cc1C		inconclusive: 25.1 µM [inhibitor, full curve, poor fit]
CC[C@H](C)Cc1cn([C@@H](CCCN=C(NC(=O)OC(C)(C)C)NC(=O)OC(C)(C)C)C(=O)NCCCCCCCCCCC(=O)N2CCN(C(=O)OC(C)(C)C)CC2)nn1		inconclusive: 35.5 µM [inhibitor, partial curve]
CCOC(=O)COc1cc(Br)c(/C=N/Nc2ccccc2)cc1OC	inactive: -24.2%	
O=C(CN1C(=O)NC(Cc2c[nH]c3ccccc23)C1=O)Nc1ccc(F)cc1F (stereo not given)	inactive: -12.3%	
Cc1nn(C)c2c1c(C(F)(F)F)cc(=O)n2C(C)C(=O)NCCC(C)C (stereo not given)	inactive: -16.3%	
Cc1csc(NC(=O)c2cccc(S(=O)(=O)N3CCN(C)CC3)c2)n1		inconclusive: 31.6 µM [inhibitor, single point]
Cc1ccc(C)c(NC(=O)Cn2nnc(C(=O)NCc3cccs3)c2N)c1		inconclusive: 70.8 µM [inhibitor, partial curve, poor fit]
CCCNC(=O)c1ccc2c(c1)nc(C)n2-c1cccc(C)c1		inactive
Cn1c(C(=O)OC(C(=O)NCc2ccco2)c2ccncc2)cc2sccc21 (stereo not given)		inconclusive: 56.2 µM [inhibitor, partial curve]
CCN(CC)c1ccc(NC(=O)c2ccccn2)cc1S(=O)(=O)Nc1ccccc1OC		active: 56.2 µM
CCOc1ccccc1Nc1nc(-c2sc(C)nc2C)cs1		inconclusive: 63.1 µM [inhibitor, single point]
O=c1[nH]c(C2CCN(S(=O)(=O)c3ccccc3)CC2)nc2c1nnn2Cc1ccccc1		active: 50.1 µM
CSCC[C@H](NC(=O)OC(C)(C)C)c1nnc(SCC(N)=O)o1	inactive: -6.13%	
CCCc1ccc(Oc2cn[nH]c2-c2ccc(O)c(C)c2O)cc1		inconclusive: 50.1 µM [inhibitor, partial curve]
O=C1C(C=Nc2ccccc2O)=C(O)c2ccccc21	inactive: -25.6%	
O=C(COC(=O)c1ccc[nH]c1=O)NCC1CCCO1 (stereo not given)		inconclusive: 20 µM [inhibitor, full curve, poor fit]
O=[N+]([O-])c1cc([N+](=O)[O-])c(Oc2c(F)ccc(F)c2F)cc1NN1CCCCC1		inconclusive: 25.1 µM [inhibitor, partial curve]
COC(=O)CCNc1n[nH]c(=O)[nH]c1=O	inactive: 6.34%	
CC1(C)CC(=O)C2=C(C1)NC1=C(C(=O)c3ccccc31)C2c1cc([N+](=O)[O-])ccc1O (stereo not given)		inconclusive: 22.4 µM [inhibitor, partial curve]
COc1ccc(NC(=O)Cn2cc(C(=O)c3ccncc3)c(=O)c3cc(C)ccc32)cc1Cl		inconclusive: 56.2 µM [inhibitor, partial curve]

Compound	activity change, negative = inhibition	Potency
COC(=O)c1ccc(-n2nnc(-c3nc(-c4ccccc4Cl)no3)c2C)cc1	inactive: 2.27%	
Cc1ccnc(NC(=O)CCCOc2cc(=O)n(C)c3ccccc23)c1		inconclusive: 79.4 µM [inhibitor, partial curve]
Cc1cc(S(=O)(=O)N2CCN(Cc3ccc4c(c3)OCO4)CC2)cc(C)c1N1CCCC1=O		inconclusive: 56.2 µM [inhibitor, partial curve, poor fit]
Cc1cc(C(F)(F)F)nn1Cc1n[nH]c(=S)n1-c1cccc(Cl)c1		inconclusive: 79.4 µM [inhibitor, partial curve]
O=[N+]([O-])c1ccccc1S(=O)(=O)NC1CCCCCCC1		inconclusive: 63.1 µM [inhibitor, partial curve]
CC1CCN(C(=S)c2ccc(N(C)C)cc2)CC1		inconclusive: 79.4 µM [inhibitor, partial curve]
O=C(NCC1CCCO1)c1nc2c(nnn2Cc2ccc(F)cc2)c(=O)[nH]1 (stereo not given)		inconclusive: 35.5 µM [inhibitor, single point]
CCOc1ccc2[nH]c3c(NCCc4ccc(OC)c(OC)c4)ncnc3c2c1		inconclusive: 31.6 µM [inhibitor, partial curve]
CCOC(=O)/C=C1\CN(Cc2cc(OC)c(OC)c(OC)c2)S(=O)(=O)c2ccc(C(F)(F)F)cc21	inactive: -30.1%	
CC1CC2(CCCCC2)Nc2ccc3ccccc3c21 (stereo not given)		inconclusive: 79.4 µM [inhibitor, partial curve]
COc1ccc(S(=O)(=O)N2CCOC2CNC(=O)C(=O)NCc2ccccn2)cc1C (stereo not given)	inactive: -10.3%	
COCCCn1c(Cc2csc(Nc3ccccc3)n2)nnc1SCC(N)=O		inconclusive: 39.8 µM [inhibitor, single point]
CCOC(=O)C1CCN(c2cc(C)nc3c(-c4ccccc4OC)c(C)nn23)CC1	inactive: 8.97%	
O=C1CC(=O)CC(c2ccccc2)C1	inactive: -10.2%	
O=C(c1ccccc1)N1N=C(c2ccccc2)CC1c1ccccc1O (stereo not given)		active: 11.2 µM
Cc1ccc(C2=NCCn3c2c2ccc([N+](=O)[O-])cc2[n+]3[O-])cc1		inconclusive: 56.2 µM [inhibitor, partial curve]
COc1ccc(NCc2nnc(SCC(=O)c3ccc(OC)cc3)n2C)cc1		active: 56.2 µM
Cc1ccc(S(=O)(=O)N2CCOCC2)cc1NC(=O)CSc1ccc(Cl)cc1	inactive: -12.3%	
O=C(O)CC1S/C(=N/N=C/C=C/c2ccccc2[N+](=O)[O-])NC1=O (stereo not given)		inconclusive: 70.8 µM [inhibitor, single point]
S=c1[nH]nc(-c2ccccn2)n1/N=C/c1ccccc1		active: 2.82 µM
CCc1cccc(Nc2c([N+](=O)[O-])cc(C(=O)N3CC(=O)Nc4ccccc43)cc2[N+](=O)[O-])c1		inconclusive: 22.4 µM [inhibitor, full curve]
CN1CCN(C(=S)NC(=O)c2ccccc2Br)CC1	inactive: -15.7%	

Source: PubChem BioAssay AID504339 (National Center for Advancing Translational Sciences (NCATS), 2011)
